In the BET-seq Pho4 binding data (Le et al. 2018):
This is one part of the list. Values were computed here from the reads of four pooled replicates and scatter widely.

Each sequence was assayed against T1, Pho4 (S. cerevisiae) (UniProt P07270) (assay: relative binding free energy (BET-seq); higher = weaker binding). Conditions: reference: library average.
T1 sequence: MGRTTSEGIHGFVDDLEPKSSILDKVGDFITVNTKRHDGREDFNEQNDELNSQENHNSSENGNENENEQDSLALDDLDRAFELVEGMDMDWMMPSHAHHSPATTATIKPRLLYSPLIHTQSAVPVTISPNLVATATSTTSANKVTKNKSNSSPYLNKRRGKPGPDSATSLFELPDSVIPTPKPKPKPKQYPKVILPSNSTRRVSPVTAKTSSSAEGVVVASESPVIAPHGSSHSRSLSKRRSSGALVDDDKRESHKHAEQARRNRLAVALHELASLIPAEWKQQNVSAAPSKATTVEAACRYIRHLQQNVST

Sequence | relative binding free energy
ATGTTCACGTGAGGAT | 0.31 kcal/mol
TTATACACGTGGGAAT | 0.09 kcal/mol
TGGTCCACGTGTCGAG | 0.15 kcal/mol
TAAGTCACGTGAGAAG | 0.28 kcal/mol
CAGGTCACGTGAGTGG | 0.35 kcal/mol
TTGGTCACGTGCGAAA | 0.19 kcal/mol
TACGTCACGTGGCTGT | 0.14 kcal/mol
TTCAGCACGTGGTTTG | -0.11 kcal/mol
TGGTTCACGTGATGAT | 0.38 kcal/mol
GAGGTCACGTGTAATT | 0.24 kcal/mol
TTATACACGTGTATGT | 0.06 kcal/mol
CGATGCACGTGGTGTC | 0 kcal/mol
TGTGTCACGTGGTGAG | 0.04 kcal/mol
ATATGCACGTGACTGA | 0.24 kcal/mol
TGTTCCACGTGGAGAG | 0.04 kcal/mol
TGCTTCACGTGGTATA | 0.15 kcal/mol
TTGGCCACGTGGTAAT | 0 kcal/mol
GACGGCACGTGGTGAT | 0.02 kcal/mol
ACGTGCACGTGGGGCG | -0.25 kcal/mol
TGGATCACGTGTGGGC | 0.21 kcal/mol
GTCGGCACGTGGGTAG | -0.25 kcal/mol
TCTGTCACGTGATTTT | 0.17 kcal/mol
CCTTGCACGTGTGAGG | 0.08 kcal/mol
TGTTCCACGTGATTGG | 0.09 kcal/mol
TTATTCACGTGGGGAC | 0.18 kcal/mol
AGAGTCACGTGTTTCT | 0.13 kcal/mol

Sequence | relative binding free energy
GGTCGCACGTGAGTTG | 0.2 kcal/mol
AAAGACACGTGATGGG | 0.04 kcal/mol
ATAATCACGTGTTTTA | 0.06 kcal/mol
GTGGTCACGTGCGCGT | 0.04 kcal/mol
GGTGACACGTGCGTTG | -0.06 kcal/mol
GTACGCACGTGTGGAA | 0.17 kcal/mol
TTGGACACGTGCGGTT | 0.09 kcal/mol
AAAAGCACGTGGTGGG | 0.01 kcal/mol
TTTTACACGTGCTTTA | 0.02 kcal/mol
GTGGTCACGTGACATA | 0.4 kcal/mol
AGTTGCACGTGGTTAA | -0.06 kcal/mol
TGGTTCACGTGACTGT | 0.34 kcal/mol
TGGATCACGTGGTATC | 0.13 kcal/mol
ATTCTCACGTGTGTTG | 0.17 kcal/mol
TTGAACACGTGTGTGC | 0.09 kcal/mol
GCGTACACGTGAGTGG | 0.27 kcal/mol
TTTGGCACGTGTGAGT | 0.1 kcal/mol
GGCGCCACGTGAAGGG | 0.12 kcal/mol
TGCTGCACGTGGGTTG | -0.03 kcal/mol
GTCTCCACGTGGTTGG | -0.01 kcal/mol
GGTGTCACGTGTTGGT | 0.11 kcal/mol
AGCGGCACGTGCTGGG | -0.04 kcal/mol
CATTGCACGTGGGCGG | -0.23 kcal/mol
TATTGCACGTGGCATG | -0.11 kcal/mol
GTGTTCACGTGCTTGT | 0.33 kcal/mol
GCGTGCACGTGGTGTA | -0.22 kcal/mol

Sequence | relative binding free energy
TATTACACGTGGTGAA | 0.09 kcal/mol
AGGGCCACGTGCTTGT | -0.25 kcal/mol
TTGAGCACGTGGAGGT | -0.16 kcal/mol
TGTTGCACGTGACGAG | 0.2 kcal/mol
AGAATCACGTGGGCAG | 0.1 kcal/mol
AGGTGCACGTGTTAAA | -0.04 kcal/mol
GGACTCACGTGGGTAG | 0.09 kcal/mol
ACTGTCACGTGGTCTG | 0.07 kcal/mol
AGAATCACGTGGCGGG | 0.1 kcal/mol
GTATACACGTGTGGGT | 0.05 kcal/mol
ATTTCCACGTGTCTTT | 0.31 kcal/mol
GACGACACGTGGCGGG | 0.11 kcal/mol
TTAAGCACGTGATGGC | 0 kcal/mol
TCGGACACGTGGCTGT | -0.05 kcal/mol
CAAGTCACGTGTTTTT | 0.13 kcal/mol
AAAGGCACGTGCGTTA | -0.06 kcal/mol
GATTTCACGTGAGGTA | 0.39 kcal/mol
ATGCGCACGTGGGTGC | -0.3 kcal/mol
CGGATCACGTGTGATG | 0.22 kcal/mol
TCAGTCACGTGGTATT | 0.06 kcal/mol
GAGGTCACGTGATGAT | 0.32 kcal/mol
TAAAGCACGTGGGCAG | -0.22 kcal/mol
GTTACCACGTGGGGGT | -0.17 kcal/mol
CGATTCACGTGGGGGA | 0.24 kcal/mol
CGGAGCACGTGTGGTG | 0.04 kcal/mol
TGAATCACGTGTAGGT | 0.15 kcal/mol

Sequence | relative binding free energy
GTATCCACGTGTTTGA | 0.15 kcal/mol
TTGTACACGTGCGCGT | -0.1 kcal/mol
GGTGTCACGTGCTACG | 0.12 kcal/mol
GTGAACACGTGTAGGG | 0.08 kcal/mol
ATAATCACGTGAGGGA | 0.41 kcal/mol
GGGTGCACGTGGGGCG | -0.08 kcal/mol
TTTAGCACGTGACTTT | 0.03 kcal/mol
TGTTGCACGTGGGTAA | -0.13 kcal/mol
TTTTACACGTGTACTG | 0.1 kcal/mol
GTGACCACGTGTGTGT | 0.04 kcal/mol
GATCGCACGTGATGGG | 0.29 kcal/mol
TGTATCACGTGCGGAA | 0.12 kcal/mol
CTTGTCACGTGCTGGT | 0.05 kcal/mol
GTTTGCACGTGATTTA | 0.03 kcal/mol
GTTAACACGTGTTTCA | 0.15 kcal/mol
AGGAGCACGTGTTCTG | -0.14 kcal/mol
GTTATCACGTGGGCTA | 0.03 kcal/mol
TGATACACGTGTGAGG | 0 kcal/mol
GTAAGCACGTGAGGGC | 0 kcal/mol
TTGCACACGTGTAGAG | 0.1 kcal/mol
AAGGTCACGTGCGTGG | 0.05 kcal/mol
CGATACACGTGTTGTG | 0.2 kcal/mol
TTGGGCACGTGATATT | 0.06 kcal/mol
CGAGGCACGTGGGTAA | -0.07 kcal/mol
GGTTTCACGTGGTTCA | 0.31 kcal/mol
GCGGACACGTGGAAGG | 0.14 kcal/mol

Sequence | relative binding free energy
GCGTACACGTGCGGGG | -0.02 kcal/mol
AGGCGCACGTGTCGGT | -0.11 kcal/mol
TTGACCACGTGGGTGA | -0.28 kcal/mol
GCTATCACGTGGGGTA | 0 kcal/mol
GGGTACACGTGTAGTT | 0.18 kcal/mol
TAGGGCACGTGTCTTT | -0.09 kcal/mol
CGACTCACGTGGTGGG | 0.01 kcal/mol
TTCATCACGTGGTTTA | 0.22 kcal/mol
GGATTCACGTGTTATA | 0.18 kcal/mol
TCTTTCACGTGTGGTG | 0.39 kcal/mol
GTTTGCACGTGTCGGG | 0.08 kcal/mol
AGAAGCACGTGCTGGT | -0.17 kcal/mol
GGTGACACGTGGGGAG | -0.05 kcal/mol
GCGATCACGTGGGTTA | 0.13 kcal/mol
GGTTGCACGTGTCCGT | 0.06 kcal/mol
TTGAGCACGTGGGGCA | -0.24 kcal/mol
TTTATCACGTGCTGTT | 0.12 kcal/mol
CGAGGCACGTGAGAGT | 0.01 kcal/mol
TAAGACACGTGAGTTG | 0.2 kcal/mol
TGTTTCACGTGTGAAC | 0.33 kcal/mol
AGGGACACGTGAGGGA | 0.19 kcal/mol
GTGTGCACGTGGGTAC | -0.3 kcal/mol
ATGTACACGTGAAAGT | 0.22 kcal/mol
CAGATCACGTGGCGGT | 0.15 kcal/mol
TTTGGCACGTGTGCCT | -0.12 kcal/mol
AGTTACACGTGGATGA | 0.03 kcal/mol

Sequence | relative binding free energy
TGGACCACGTGGAGGT | -0.06 kcal/mol
GGCGGCACGTGAAGAT | 0.34 kcal/mol
TTGGTCACGTGATCGA | 0.23 kcal/mol
TGGGACACGTGGTAGT | 0.06 kcal/mol
ATGTTCACGTGTGTCA | 0.22 kcal/mol
GGTATCACGTGACTGT | 0.3 kcal/mol
AGTTTCACGTGTTCAG | 0.29 kcal/mol
AAGCACACGTGTGGGG | 0.05 kcal/mol
CTGGGCACGTGGGAAT | -0.12 kcal/mol
TGTGTCACGTGATAAT | 0.21 kcal/mol
TTAGTCACGTGCGGGA | 0.13 kcal/mol
AAATGCACGTGTCGGG | -0.02 kcal/mol
GGGTACACGTGCGGAT | 0.15 kcal/mol
TAATGCACGTGAGGAT | 0.23 kcal/mol
GTGGTCACGTGGGTAC | 0.06 kcal/mol
TAGGTCACGTGTGATA | 0.18 kcal/mol
AGTGTCACGTGTGACG | 0.15 kcal/mol
GGTCGCACGTGTATTT | 0.05 kcal/mol
AGTTTCACGTGGGGGG | 0.19 kcal/mol
ATGCTCACGTGGTATT | 0.18 kcal/mol
TGAGTCACGTGGCATT | 0 kcal/mol
TAGTTCACGTGGTAAG | 0.28 kcal/mol
GTTTTCACGTGCCTTT | 0.21 kcal/mol
TTTCTCACGTGGTTAA | 0.08 kcal/mol
TTGTACACGTGATTCT | 0.24 kcal/mol
AGTGGCACGTGGCGAT | -0.17 kcal/mol

Sequence | relative binding free energy
GTGTGCACGTGGGCGG | -0.22 kcal/mol
GGCTCCACGTGGAGGG | -0.13 kcal/mol
CGAGGCACGTGTGGAT | -0.15 kcal/mol
TTGTTCACGTGGAATT | 0.33 kcal/mol
TGGGGCACGTGGAACT | -0.02 kcal/mol
GTTTTCACGTGCTATT | 0.22 kcal/mol
GGATGCACGTGACTTG | 0.08 kcal/mol
AGCGGCACGTGCGGTA | -0.11 kcal/mol
CGTTTCACGTGTGCAT | 0.25 kcal/mol
TTGAGCACGTGTGCAG | -0.05 kcal/mol
CTTTGCACGTGGAATG | 0.06 kcal/mol
TGTTACACGTGATTCG | 0.23 kcal/mol
GGTTTCACGTGGTGTC | 0.17 kcal/mol
TGGTTCACGTGAGTTA | 0.38 kcal/mol
GACTGCACGTGTGTGG | 0.06 kcal/mol
TGTTGCACGTGGGGAG | -0.09 kcal/mol
GGGTACACGTGTCAGG | 0.13 kcal/mol
ATTTTCACGTGGTTAA | 0.24 kcal/mol
GGTTCCACGTGGGTCT | -0.01 kcal/mol
TAAGACACGTGTAGTT | 0.01 kcal/mol
TGGGACACGTGAAAGT | 0.3 kcal/mol
GGTGGCACGTGTGTTT | -0.11 kcal/mol
TCTGTCACGTGGGAAT | 0.07 kcal/mol
TTTTACACGTGATTGC | 0.15 kcal/mol
AGGTGCACGTGATTGT | 0.14 kcal/mol
CTGGTCACGTGAGCTG | 0.11 kcal/mol

Sequence | relative binding free energy
GTTACCACGTGTGAGG | 0.21 kcal/mol
TTTGGCACGTGTTGTT | -0.11 kcal/mol
TATGGCACGTGGTAAG | -0.14 kcal/mol
GTGTTCACGTGAAAAG | 0.44 kcal/mol
CGCGTCACGTGGGGGG | 0.02 kcal/mol
CTTGTCACGTGGATTG | 0.21 kcal/mol
AGTGCCACGTGGCTGG | -0.17 kcal/mol
TCGGGCACGTGGGCGG | -0.24 kcal/mol
TTTACCACGTGGTTTG | -0.01 kcal/mol
GGTAACACGTGGTAGC | 0.03 kcal/mol
GGGTGCACGTGGAGGC | -0.03 kcal/mol
TGTTTCACGTGTTACG | 0.2 kcal/mol
AGATTCACGTGTAGAG | 0.24 kcal/mol
AGGTTCACGTGGTTTT | 0.23 kcal/mol
TGAGTCACGTGCGGTT | 0.12 kcal/mol
CAGGTCACGTGTTAGG | 0.19 kcal/mol
TATAACACGTGGGGTT | -0.15 kcal/mol
GCAAGCACGTGGTGTG | -0.29 kcal/mol
CTGGGCACGTGGCGTT | -0.15 kcal/mol
GCGGGCACGTGTAGGT | 0.09 kcal/mol
TATGTCACGTGGGATA | 0.03 kcal/mol
TCAATCACGTGGGAGT | 0.03 kcal/mol
GTTTGCACGTGCGTTG | 0.08 kcal/mol
TGAAGCACGTGGATTG | -0.07 kcal/mol
GCGAGCACGTGTGGGA | -0.02 kcal/mol
GATTGCACGTGCGAGG | 0.03 kcal/mol

Sequence | relative binding free energy
TGGTACACGTGAGGCA | 0.28 kcal/mol
GTGGACACGTGTGAAA | 0.43 kcal/mol
AGGGGCACGTGCGTGT | -0.25 kcal/mol
GGTAACACGTGGGTAT | -0.05 kcal/mol
GAGTGCACGTGGGGAT | -0.07 kcal/mol
CAGTGCACGTGTGGGT | -0.04 kcal/mol
TCGGACACGTGGGAAT | 0.09 kcal/mol
CGCGTCACGTGGTGGA | 0 kcal/mol
AAAAGCACGTGATTGG | 0.02 kcal/mol
TACTGCACGTGGGTAG | -0.12 kcal/mol
CGTGGCACGTGGCCGT | -0.25 kcal/mol
TATTGCACGTGCTAGT | -0.17 kcal/mol
GGGGTCACGTGGTCAA | -0.03 kcal/mol
GGCAACACGTGTGGGT | 0.05 kcal/mol
GGTTACACGTGTGGGC | 0.1 kcal/mol
GGTTGCACGTGGCCGA | -0.03 kcal/mol
TTGGACACGTGGTTGA | 0.17 kcal/mol
GTAGGCACGTGGGTTA | -0.25 kcal/mol
CAGGTCACGTGAATTG | 0.2 kcal/mol
TTTTTCACGTGCAGAT | 0.29 kcal/mol
AAGGACACGTGTAGTG | -0.09 kcal/mol
GGGAGCACGTGTTGTG | 0.01 kcal/mol
